The values below come from paper PMC9691689, “Uptake mechanism of iron-phytosiderophore from the soil based on the structure of yellow stripe transporter” (Nature Communications, 2022).

This data set concerns the molecule itself. In words: SEC; Superdex 200 10/300 GL; 20 mM HEPES pH 7.5, 150 mM NaCl, 0.001% LMNG, 0.0002% CHS; protein purified with CHS throughout. In general terms: In gel filtration, larger molecules generally elute earlier.

B1: HvYS1 K673C (natural protein)
chain: not shown
notes: Yellow stripe 1 (YS1) iron-phytosiderophore transporter of barley (Hordeum vulgare L.) with a cysteine at Lys673 in the middle of strand S1; source: Sf9 insect cells (baculovirus), purified in the same manner as the wild type, with or without CHS
Take B1: the stoichiometry N – broadly, a count of units in the complex or per binding partner – was 2.
